# The other results are listed elsewhere or left out. Cleavage of a single-stranded DNA pool by Rep nickase domains was read by sequencing (1 h at 37 °C, 3 µM enzyme); the outer parts of the 90-letter strands are left off. The score is log2 (uncut reads / reads without enzyme); the lower, the more was cut; hits are not called. Shares of all reads are compared; values above 0 arise when much of the pool is cut.
# Columns and labels:
# Assay in all cases: uncleaved DNA left, log2 of reads against the no-enzyme library (log2 ratio); higher = less cleavage (more negative = more Rep cleavage of the k-mer); sequences stand for … in CTCGTCCG…ACCGGAGA
# [1] = system: T1, Rep nickase domain of Muscovy duck circovirus
# T1 sequence (protein, residues 1-111, tag omitted): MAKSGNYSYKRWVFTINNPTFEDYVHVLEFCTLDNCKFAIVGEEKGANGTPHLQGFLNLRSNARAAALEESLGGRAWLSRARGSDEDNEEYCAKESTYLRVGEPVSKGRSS
# Method: (§1)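 A pool of 90-nt single-stranded DNAs with seven random bases just before the constant AC of the nick site (name = the seven bases) was cut by 3 µM recombinant His6-SUMO-tagged Rep nickase domain (300 nM DNA, 50 mM HEPES pH 8.0, 50 mM NaCl, 1 mM MnCl2, 1 h, 37 °C, three replicates). Uncut DNA was amplified and sequenced.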
# [2] = system: T2, Rep nickase domain of banana bunchy top virus
# T2 sequence (protein, residues 1-94, tag omitted): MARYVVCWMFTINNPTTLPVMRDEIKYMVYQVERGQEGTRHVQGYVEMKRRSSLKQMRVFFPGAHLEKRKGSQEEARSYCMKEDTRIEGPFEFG
# Method: as §1
# [3] = system: T3, Rep nickase domain of cabbage leaf curl virus
# T3 sequence (protein, residues 1-116, tag omitted): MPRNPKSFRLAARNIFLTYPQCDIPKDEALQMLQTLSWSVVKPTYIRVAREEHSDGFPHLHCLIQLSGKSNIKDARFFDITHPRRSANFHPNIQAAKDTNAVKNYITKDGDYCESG
# Method: as §1
# [4] = system: T4, Rep nickase domain of chickpea chlorotic dwarf virus
# T4 sequence (protein, residues 1-124, tag omitted): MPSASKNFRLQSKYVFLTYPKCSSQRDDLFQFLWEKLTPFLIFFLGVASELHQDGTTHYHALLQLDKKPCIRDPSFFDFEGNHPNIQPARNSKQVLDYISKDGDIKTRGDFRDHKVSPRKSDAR
# Method: as §1
# [5] = system: T5, Rep nickase domain of faba bean necrotic yellows virus
# T5 sequence (protein, residues 1-98, tag omitted): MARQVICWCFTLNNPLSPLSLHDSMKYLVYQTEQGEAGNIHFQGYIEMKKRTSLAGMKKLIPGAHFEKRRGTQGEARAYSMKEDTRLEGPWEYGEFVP
# Method: as §1
# [6] = system: T6, Rep nickase domain of maize striate mosaic virus
# T6 sequence (protein, residues 1-117, tag omitted): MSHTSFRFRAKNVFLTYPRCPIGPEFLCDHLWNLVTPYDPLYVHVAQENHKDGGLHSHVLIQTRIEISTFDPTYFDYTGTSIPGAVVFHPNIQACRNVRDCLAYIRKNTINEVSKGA
# Method: as §1
# [7] = system: T7, Rep nickase domain of porcine circovirus 2
# T7 sequence (protein, residues 2-116, tag omitted): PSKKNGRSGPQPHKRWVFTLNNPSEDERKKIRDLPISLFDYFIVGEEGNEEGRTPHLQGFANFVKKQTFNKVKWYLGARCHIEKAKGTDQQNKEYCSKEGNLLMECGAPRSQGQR
# Method: as §1
# [8] = system: T8, Rep nickase domain of tomato golden mosaic virus
# T8 sequence (protein, residues 1-124, tag omitted): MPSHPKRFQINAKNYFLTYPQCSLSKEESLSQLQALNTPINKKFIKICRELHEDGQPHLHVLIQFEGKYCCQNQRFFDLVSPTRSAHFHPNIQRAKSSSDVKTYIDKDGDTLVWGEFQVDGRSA
# Method: as §1
# [9] = system: T9, Rep nickase domain of tomato yellow leaf curl virus
# T9 sequence (protein, residues 1-136, tag omitted): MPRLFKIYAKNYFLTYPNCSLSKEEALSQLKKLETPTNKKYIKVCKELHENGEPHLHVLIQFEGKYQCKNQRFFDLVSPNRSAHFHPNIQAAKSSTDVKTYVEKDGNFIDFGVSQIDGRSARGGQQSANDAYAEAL
# Method: as §1
# [10] = system: T10, Rep nickase domain of wheat dwarf virus
# T10 sequence (protein, residues 1-137, tag omitted): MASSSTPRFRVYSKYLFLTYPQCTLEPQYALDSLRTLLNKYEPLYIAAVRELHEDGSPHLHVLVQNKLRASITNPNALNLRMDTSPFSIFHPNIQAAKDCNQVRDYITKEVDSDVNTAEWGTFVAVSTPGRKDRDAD
# Method: as §1
Sequence,uncleaved DNA left (log2) [1],uncleaved DNA left (log2) [2],uncleaved DNA left (log2) [3],uncleaved DNA left (log2) [4],uncleaved DNA left (log2) [5],uncleaved DNA left (log2) [6],uncleaved DNA left (log2) [7],uncleaved DNA left (log2) [8],uncleaved DNA left (log2) [9],uncleaved DNA left (log2) [10]
CCGTAAG,-0.0558,-0.0617,-0.851,-0.19,-0.116,-0.952,0.157,0.0383,-0.0553,-0.272
CCAACAG,-0.0489,-0.0481,-0.67,-1.38,0.0212,-1.07,0.12,0.0601,0.0183,-0.105
TTACTGA,0.0761,-0.125,0.00972,0.0354,-0.0611,1.14,0.0464,-0.0856,-0.163,-0.141
CCTCTCA,0.106,0.0818,0.0497,-1.16,0.189,-0.427,-0.0316,0.0161,0.197,0.164
ATGTGAC,0.0692,0.0827,0.225,0.435,0.038,0.0802,0.197,-0.0109,0.176,0.00722
CTCAGCC,0.0192,-0.008,-0.0759,-0.472,-0.0648,-0.957,-0.0349,-0.0666,-0.0397,-0.0244
TCTCCCC,-0.24,-0.0684,0.145,0.0224,0.0693,0.439,-1.7,-0.0971,-0.0609,-0.0173
CTTTCAT,-0.0791,0.108,0.0957,-0.833,0.0826,-0.481,-0.28,-0.0551,0.111,0.177
CACGCAC,0.00519,-0.146,-0.422,-0.0845,-0.0498,-0.835,-0.055,-0.035,-0.147,-0.159
CATATAG,-0.000634,-0.0955,-0.819,-0.177,0.0356,-1.17,0.191,0.0501,-0.0147,-0.0203
AGTAAAT,-0.0187,-0.0448,0.0386,0.0938,-0.0843,0.097,-3.4,0.0194,0.0687,0.0816
CAACTAG,-0.0285,0.00196,-0.813,-0.857,0.0225,-1.1,0.0523,-0.0869,0.053,-0.188
TCCTTAT,-0.296,-0.183,0.0415,-0.723,-0.0496,-0.692,-2.25,-0.119,-0.208,-0.201
AGTAGTC,0.0324,0.00567,-0.0308,0.11,-0.116,-0.459,0.0314,-0.0364,0.122,0.00223
CGTTGTT,-2.76,-0.685,-0.444,-1.95,-0.158,-0.83,-2.75,-0.146,-0.0377,-0.337
ACACTCA,-0.134,-0.0736,-0.435,-1.55,-0.0215,-0.907,-0.0772,-0.0515,-0.159,-0.0775
AAGGCTC,-0.0811,-0.0386,0.11,0.298,-0.0713,0.344,0.0628,0.108,-0.0956,-0.0196
TGCCGCC,-0.00438,-0.0655,0.00667,-0.238,-0.131,-0.456,-0.048,-0.109,-0.0536,0.0555
ACTCGGT,0.172,0.149,-0.0978,-0.0541,0.157,-0.417,0.116,0.122,0.101,0.123
AATTATA,-2.69,-0.784,-0.227,-2.85,0.0489,-0.75,-2.59,0.0426,0.0739,-0.0366

Sequence,uncleaved DNA left (log2) [1],uncleaved DNA left (log2) [2],uncleaved DNA left (log2) [3],uncleaved DNA left (log2) [4],uncleaved DNA left (log2) [5],uncleaved DNA left (log2) [6],uncleaved DNA left (log2) [7],uncleaved DNA left (log2) [8],uncleaved DNA left (log2) [9],uncleaved DNA left (log2) [10]
AATGCTA,-0.149,0.0179,-0.0757,-0.525,-0.0567,0.0177,-0.161,-0.0636,-0.0247,-0.102
CGAGCGC,-0.0904,-0.0178,-0.112,0.332,-0.069,0.273,0.000642,0.0475,-0.0543,0.0786
CGATAGT,-1.17,0.0951,0.0766,0.0126,0.0153,0.274,-1.75,0.0401,0.0107,0.109
GGCGTAA,-0.0323,0.031,0.0962,0.599,0.0569,0.86,-0.0365,0.0394,0.0602,0.02
CCCACCT,-0.0625,-0.0451,-0.0533,-2.08,-0.0555,-0.419,-0.309,-0.0586,-0.0839,-0.0589
GGGACAT,-0.0351,0.0454,0.929,2.12,-0.166,2.39,0.135,0.000714,-0.664,0.164
GTAAGTA,0.215,0.122,0.168,-0.113,0.0541,1.39,0.0511,0.11,0.176,0.132
AAGCTGG,0.143,0.03,0.375,1.5,0.0422,1.37,0.249,0.166,-0.0881,0.189
AGGTGTC,-0.0497,-0.0475,0.0196,0.319,-0.0199,0.228,0.0155,-0.0238,-0.108,-0.0373
GGATGCT,-0.364,0.105,0.313,0.478,0.106,0.408,-1.27,0.0705,0.183,0.157
AGTGGTG,0.00454,-0.0402,-0.141,0.163,-0.0132,0.646,0.0588,0.0436,-0.0692,-0.073
CAAGGAA,-0.000232,0.0669,0.307,1.36,0.00652,1.52,0.117,0.0402,-0.181,0.148
TACAGTG,0.121,-0.0145,-0.834,-0.955,0.0341,-1.11,0.156,-0.0361,-0.0208,-0.0905
AAACCCA,-0.0151,0.101,0.0175,-1.47,0.217,0.0372,-0.689,0.202,0.0997,0.00361
TGCTCTG,-0.0446,-0.059,-0.0397,0.417,0.102,1.08,0.0752,-0.0148,-0.0671,0.0172
CTACCGG,-0.183,-0.046,0.327,0.973,-0.0618,1.39,-0.116,-0.0542,-0.108,0.00468
TGTCGAG,-0.134,-0.101,-0.169,-0.0562,-0.036,-0.765,-0.11,-0.13,-0.0998,-0.0825
AACTGGG,0.0806,-0.00418,-0.496,-0.574,0.00357,-0.979,0.185,0.00452,0.0485,-0.031
AAAGGCT,0.153,0.248,0.207,1.09,0.0676,1.36,0.201,0.168,-0.0354,0.0462
ATATACT,-4.24,-0.743,-3.17,-3.48,-0.0658,-1.86,-3.91,-1.08,-0.047,-1.15

Sequence,uncleaved DNA left (log2) [1],uncleaved DNA left (log2) [2],uncleaved DNA left (log2) [3],uncleaved DNA left (log2) [4],uncleaved DNA left (log2) [5],uncleaved DNA left (log2) [6],uncleaved DNA left (log2) [7],uncleaved DNA left (log2) [8],uncleaved DNA left (log2) [9],uncleaved DNA left (log2) [10]
ACCTCAA,0.0509,-0.0138,-0.0199,-0.27,0.0912,-0.411,0.0932,0.107,0.00218,0.089
TTCAATT,-0.0291,0.0486,0.0268,-2.08,-0.00851,0.153,-1.12,-0.135,0.000124,0.0361
CACAGGG,0.147,0.0423,-0.48,-0.236,0.0422,-0.85,0.209,0.0809,0.0759,-0.0477
TGGGCAC,-0.0739,0.104,0.828,1.87,-0.0898,2.15,0.162,-0.0501,0.0597,0.0664
ACGCCAT,0.00479,0.0919,-0.2,-0.313,0.0126,-0.195,0.108,-0.018,0.0338,0.0224
AAAGTGT,0.19,0.0799,0.122,0.614,0.1,0.742,0.207,0.163,0.0404,0.0443
CAGTAAG,-0.048,-0.0563,-0.842,-0.15,0.0874,-1.05,0.0753,0.0342,0.0741,-0.105
GTGGCGG,0.117,-0.0341,0.351,0.831,-0.0705,1.03,0.102,0.0853,-0.101,-0.0388
CGATTTT,-2.83,-0.0998,-0.0125,-1.91,0.0686,-0.271,-3.08,-0.0705,0.133,-0.15
TGTTTCT,-1.78,-0.0841,0.235,-0.77,0.00103,0.756,-1.19,-0.0757,0.0454,-0.0285
GGGCAGA,0.0673,0.0763,0.884,2.01,-0.109,2.23,0.152,-0.0223,-0.105,0.119
ACGGCGT,-0.00415,-0.183,-0.783,-0.181,-0.0679,-0.523,0.051,-0.108,-0.0729,-0.195
TTCACCG,0.0735,0.0512,-0.688,-0.974,0.0964,-0.987,0.128,-0.02,-0.0878,-0.0928
ACCGTGA,-0.0223,-0.0824,-0.395,-0.295,-0.011,-0.96,0.0505,-0.101,-0.207,-0.131
TAACCTC,-0.122,0.056,-1.5,-2.74,-0.0263,0.15,-0.41,-0.0893,-0.0194,-0.453
CAGTGTC,-0.0673,-0.0904,-0.371,-0.483,-0.232,-0.979,-2.67,0.0375,-0.0271,0.156
TGTAAGG,0.0619,-0.0597,0.387,1.18,-0.0378,1.52,0.00699,0.000891,-0.127,-0.0318
ATATCGC,0.0469,0.00566,-0.729,-0.768,0.0558,-1.08,0.123,-0.0465,0.0479,-0.0142
AAGCGCG,-0.0905,-0.019,-0.715,-0.246,0.0676,-0.802,0.0533,0.0216,0.0738,-0.107
CACTTCC,0.019,-0.0583,-0.127,-0.763,-0.0636,-0.424,-0.576,0.00284,0.0304,-0.0147

# — the supplement of paper PMC7826260
